Measured values: PubChem BioAssay AID1466 (National Center for Advancing Translational Sciences (NCATS), 2008)
In all, about 200,000 compounds went through this assay and about 10 (0.005%) were called active. This list was built around the results that the source calls inconclusive (neither active nor inactive); the mix of calls is not that of the screen. Calls come from the whole dose curve; as a rule, active = well fitted inhibition curve with a large enough effect; inconclusive = small, poorly fitted or top-dose-only effect, or effect the other way, or another doubt; inactive = no such curve, though single readings can be large or run the other way. Potencies of inconclusive entries are doubtful fits and often do not repeat.

Molecular target: Lysosomal alpha-glucosidase (Homo sapiens) (UniProt P10253)
Assay: qHTS Assay for Inhibitors of Human alpha-Glucosidase as a Potential Chaperone Treatment of Pompe Disease;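 for activity change, negative = inhibition: plate controls were uninhibited enzyme wells for no effect and no-enzyme background for full effect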
Details: purified human GAA, 4-MU-alpha-glucoside fluorescence; activity change, negative = inhibition: at 76.9 µM (top of the series) unless noted
Outline: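 Activity normalized between no-enzyme (basal) and enzyme-only wells. Conditions: 4 nM human enzyme, 400 uM fluorogenic substrate, citrate/phosphate pH 5.0 with Tween-20, 20 min room temperature, compounds up to 77 uM.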
Potency is the fitted concentration of half-maximal effect; tags give direction and shape of the fitted curve.

Which Potency does the source give for `CN1CCN(c2ncnc3c2cnn3-c2ccc(Cl)cc2)CC1` here?
The Potency was inconclusive: 56.2 µM [inhibitor, single point].

Which Potency does the source give for `COc1ccc(/C=C/c2nc(N)nc(-c3ccccc3O)n2)cc1OC` here?
Its Potency is inconclusive: 25.1 µM [inhibitor, single point].

With `O=C(N/N=C/c1cccs1)C1COc2ccccc2O1` (stereo unspecified) as the compound, how does the Potency read?
Its Potency is inconclusive: 56.2 µM [inhibitor, single point].

Which Potency does the source give for `Nc1nc(NCc2ccco2)nc(N2CCCC2)c1[N+](=O)[O-]` here?
The Potency was inconclusive: 3.55 µM [inhibitor, partial curve, poor fit].

How did the activity change, negative = inhibition turn out when `S=c1[nH]nc(CCc2ccccc2)n1-c1ccc(Cl)cc1` was run?
The activity change, negative = inhibition was inconclusive: 13% [activator].

With `CC(=O)c1cccc(NC(=O)C(Sc2ncnc3ccccc23)c2ccccc2)c1` (stereo unspecified) as the compound, how does the activity change, negative = inhibition read?
The activity change, negative = inhibition was inconclusive: -15.8% [inhibitor].

Which Potency does the source give for `CCOC(=O)C1CCN(S(=O)(=O)c2cccc(-c3cn4cccnc4n3)c2)CC1` here?
Its Potency is inconclusive: 28.2 µM [activator, single point].

`CC1CC(=O)NN=C1c1ccc(N(C)C)c([N+](=O)[O-])c1` (stereo unspecified) was tested. Which Potency did it give?
Its Potency is inconclusive: 1.26 µM [inhibitor, single point].

How did the Potency turn out when `Cc1cc(C)c2nc(SCC#N)cc(C)c2c1` was run?
Its Potency is inconclusive: 11.2 µM [inhibitor, full curve, poor fit].

For `O=C(CCS(=O)(=O)Cc1ccccc1F)NCCCN1CCCCC1`, which activity change, negative = inhibition is on record?
Its activity change, negative = inhibition is inconclusive: -16.1% [inhibitor].

How did the Potency turn out when `COc1cc(C(=O)Nc2ccc3c(c2)Cc2cc(NC(=O)c4cc(OC)c(OC)c(OC)c4)ccc2-3)cc(OC)c1OC` was run?
Its Potency is inconclusive: 1.26 µM [inhibitor, full curve].

For `CCOc1ccc(CN(CCC#N)C(=S)NC(=O)c2ccccc2)cc1`, which Potency is on record?
Its Potency is inconclusive: 50.1 µM [inhibitor, single point].

`Cc1cc(C(=O)NN=C2CCCCC2)c2ccccc2n1` was tested. Which activity change, negative = inhibition did it give?
Its activity change, negative = inhibition is inconclusive: -15.4% [inhibitor].

With `COc1ccc(N(CC(=O)N2CCc3ccccc3C2)S(=O)(=O)c2c(C)nn(C)c2C)cc1` as the compound, how does the Potency read?
Its Potency is inconclusive: 56.2 µM [inhibitor, single point].

For `COc1ccc(CN(C(=O)c2cccs2)c2nccs2)cc1OC`, which Potency is on record?
The Potency was inconclusive: 35.5 µM [inhibitor, single point].

With `CCC(=O)Nc1ccc2c(c1)OCCO2` as the compound, how does the Potency read?
Its Potency is inconclusive: 31.6 µM [inhibitor, partial curve, poor fit].

With `CCOC(=O)CSC1=N/C(=C\c2cccnc2)C(=O)N1c1ccc(OC)cc1` as the compound, how does the Potency read?
Its Potency is inconclusive: 17.8 µM [activator, partial curve, poor fit].

With `COc1ccc(N/N=C(/C(N)=O)C2=NC(C)(C)Cc3ccccc32)cc1` as the compound, how does the Potency read?
The Potency was inconclusive: 31.6 µM [inhibitor, single point].

Which Potency does the source give for `Cc1ccc2c(CSc3nnc(N)s3)cc(=O)oc2c1` here?
The Potency was inconclusive: 7.94 µM [inhibitor, partial curve, poor fit].

How did the Potency turn out when `COc1ccc(NC(=O)CC2C(=O)N(c3ccccc3)C(=O)N2CCc2cccs2)cc1` (stereo unspecified) was run?
The Potency was inconclusive: 25.1 µM [inhibitor, single point].

How did the Potency turn out when `COc1ccc(OC)c(C2SCCN2S(=O)(=O)c2cccc(C(F)(F)F)c2)c1` (stereo unspecified) was run?
Its Potency is inconclusive: 0.178 µM [inhibitor, full curve, poor fit].

Which Potency does the source give for `CN(C)c1ccc(/C=N/NC(=O)C2CC2c2ccccc2)cc1` (stereo unspecified) here?
The Potency was inconclusive: 28.2 µM [activator, partial curve].

With `COc1ccc(OC)c(NC(=O)CSc2nnc3ccc(-c4ccncc4)nn23)c1` as the compound, how does the Potency read?
The Potency was inconclusive: 35.5 µM [inhibitor, single point].

Which activity change, negative = inhibition does the source give for `CN(C)CCCOC(=O)Cc1ccc(Cl)cc1` here?
Its activity change, negative = inhibition is inconclusive: 12.5% [activator].

For `O=C(c1cc2ccccc2o1)N1CCN(c2ccccc2Cl)CC1`, which Potency is on record?
Its Potency is inconclusive: 31.6 µM [inhibitor, single point].

With `CCCN(CCC)C1=N/C(=C\c2ccco2)C(=O)N1c1ccccc1` as the compound, how does the Potency read?
Its Potency is inconclusive: 11.2 µM [inhibitor, single point].

Which Potency does the source give for `Fc1cnc(N2CCN(c3ccccc3)CC2)nc1N1CCN(c2ccccc2)CC1` here?
Its Potency is inconclusive: 7.08 µM [inhibitor, partial curve].

For `NS(=O)(=O)c1ccc(NC(=O)COC(=O)C2(c3ccccc3F)CCCC2)cc1`, which activity change, negative = inhibition is on record?
The activity change, negative = inhibition was inconclusive: -16.6% [inhibitor].

How did the Potency turn out when `O/C(=C\c1ccc2ccccc2n1)c1ccc(O)cc1O` was run?
Its Potency is inconclusive: 31.6 µM [inhibitor, single point].

`COc1ccccc1NC(=O)c1c(C)cc(=O)oc1C` was tested. Which Potency did it give?
The Potency was inconclusive: 0.398 µM [inhibitor, full curve, poor fit].

Which Potency does the source give for `O=C(O)c1ccccc1CSc1ncccc1C(=O)O` here?
Its Potency is inconclusive: 50.1 µM [inhibitor, single point].

For `Oc1ccc(Cl)cc1C=Nc1ccc2c3c(cccc13)CC2`, which Potency is on record?
The Potency was “inactive”.

With `O=C1OCCN1C(=O)[C@H]1[C@H](c2ccc([N+](=O)[O-])cc2)C(c2cccc(Cl)c2)=NN1c1ccccc1` as the compound, how does the activity change, negative = inhibition read?
The activity change, negative = inhibition was inconclusive: -23.3% [inhibitor].

With `COc1cc(/C=N/NC(=O)c2nonc2C)ccc1O` as the compound, how does the Potency read?
Its Potency is inconclusive: 50.1 µM [inhibitor, single point].

How did the activity change, negative = inhibition turn out when `N/C(=N\OC(=O)c1ccccc1)c1cccnc1` was run?
Its activity change, negative = inhibition is inconclusive: 15.7% [activator].

`Cc1cc(NC(=O)CSc2nc3ccsc3c(=O)n2NC(=O)c2ccccc2)no1` was tested. Which Potency did it give?
Its Potency is inconclusive: 50.1 µM [inhibitor, single point].

For `COc1ccc(-n2c(N)c(C(=O)NCc3ccco3)c3nc4ccccc4nc32)c(OC)c1`, which Potency is on record?
Its Potency is inconclusive: 28.2 µM [activator, partial curve].

For `CN(CC(=O)N1CCCC1)S(=O)(=O)c1ccc2ccccc2c1`, which activity change, negative = inhibition is on record?
The activity change, negative = inhibition was inconclusive: 17.6% [activator].

With `CC(Oc1ccc(Cl)cc1Cl)C(=O)N(C)c1ccccc1` (stereo unspecified) as the compound, how does the activity change, negative = inhibition read?
The activity change, negative = inhibition was inconclusive: 14.4% [activator].

How did the activity change, negative = inhibition turn out when `Clc1ccc(C2=CC(c3ccco3)n3ncnc3N2)cc1` (stereo unspecified) was run?
The activity change, negative = inhibition was inconclusive: 15.3% [activator].

How did the activity change, negative = inhibition turn out when `COc1ccc2cc([C@H](C)C(=O)O)ccc2c1` was run?
Its activity change, negative = inhibition is inconclusive: -14.3% [inhibitor] [at 15.4 µM].
